Reference: US6693079

What was measured:
[1] = molecular target: T1, recombinant human IGFBP-3 (human, UniProt P17936); assay: competitive displacement of 125I-IGF-I from plate-coated rhIGFBP-3
T1 construct: also called rhIGFBP-3; biotinylated IGFBP-3

[2] = molecular target: T2, recombinant human IGFBP-1 (human, UniProt P08833 26-259); assay: competitive displacement of 125I-IGF-I from plate-coated rhIGFBP-1
T2 construct: Plate-coated, biotinylated or coupled to a dextran chip, depending on the assay; also called rhIGFBP-1; biotinylated IGFBP-1
T2 sequence (looked up): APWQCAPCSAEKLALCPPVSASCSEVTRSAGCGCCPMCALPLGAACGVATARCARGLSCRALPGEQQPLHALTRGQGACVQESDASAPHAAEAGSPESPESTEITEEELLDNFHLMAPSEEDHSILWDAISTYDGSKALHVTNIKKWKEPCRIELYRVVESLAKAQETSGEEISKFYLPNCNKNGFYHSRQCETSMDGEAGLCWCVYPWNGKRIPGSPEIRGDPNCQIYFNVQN

T1 sequence (P17936 28-291 limits assumed): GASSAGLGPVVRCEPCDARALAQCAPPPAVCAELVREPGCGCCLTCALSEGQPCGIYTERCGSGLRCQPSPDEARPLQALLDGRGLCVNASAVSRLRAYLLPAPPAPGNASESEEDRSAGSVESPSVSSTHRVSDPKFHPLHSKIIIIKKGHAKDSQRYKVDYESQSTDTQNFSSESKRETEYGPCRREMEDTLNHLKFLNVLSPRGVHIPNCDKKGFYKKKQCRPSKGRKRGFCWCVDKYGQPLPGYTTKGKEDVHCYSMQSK

binding result [1]: binds | binding result [2]: binds
B1: (Leu^24,Ala^31)hIGF-I (ligand)
chain: not shown
notes: mature; also called IGF-M; IGF mutant
